We go through 40 sequences from PMC12820563.

This is one part of the list. The list includes weakly bound sequences.

The assay addresses T1, MBP-FoxP3dN (UniProt Q99JB6).
T1 sequence: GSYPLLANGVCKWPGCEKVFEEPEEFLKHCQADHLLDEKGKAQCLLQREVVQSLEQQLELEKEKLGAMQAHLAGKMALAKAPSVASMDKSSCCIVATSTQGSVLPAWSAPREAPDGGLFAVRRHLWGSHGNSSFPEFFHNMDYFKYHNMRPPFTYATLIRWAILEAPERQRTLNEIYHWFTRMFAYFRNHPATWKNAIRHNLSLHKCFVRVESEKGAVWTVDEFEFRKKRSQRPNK
The experiment in a line: PD-seq (MBP pull-down with sequencing). To be noted: 20 mM Tris-HCl pH 7.5, 100 mM NaCl, 1.5 mM MgCl2, 0.4 uM protein, 0.1 uM dsDNA library, 30 min, room temperature, amylose pull-down; high values mean tight binding; double strand, one strand shown.
Consider “GATGATTGTTCTCCCAGCTGATGAATTTCGTCGCTCGAGTAAACAAATTTTCCTAATCTTTCTGTTCAAGCGCCATCTAC”, for which the binding signal (RPM ratio (pull-down/input)) was determined as 0.505.

On to “GATGATTGTTCTCCCAGCTGATGAATTACTAACTTCGAGTAAACAAATTTTCCTAATCTTTCTGTTCAAGCGCCATCTAC”, for which the binding signal (RPM ratio (pull-down/input)) stood at 0.543.

As to “GATGATTGTTCTCCCAGCTGATGAATTTAACACCTCGAGTAAACAAATTTTCCTAATCTTTCTGTTCAAGCGCCATCTAC”, the binding signal (RPM ratio (pull-down/input)) came out at 0.871.

On to “GATGATTGTTCTCCCAGCTGATGAATTACTACCGTCGAGTAAACAAATTTTCCTAATCTTTCTGTTCAAGCGCCATCTAC”, for which the binding signal (RPM ratio (pull-down/input)) was 0.386.

Consider “GATGATTGTTCTCCCAGCTGATGAATTACTACACTCGAGTAAACAAATTTTCCTAATCTTTCTGTTCAAGCGCCATCTAC”, for which the binding signal (RPM ratio (pull-down/input)) was determined as 0.526.

As to “GATGATTGTTCTCCCAGCTGATGAATTTTAGGATTCGAGTAAACAAATTTTCCTAATCTTTCTGTTCAAGCGCCATCTAC”, the binding signal (RPM ratio (pull-down/input)) came out at 0.258.

In the case of “GATGATTGTTCTCCCAGCTGATGAATTTTTTATATCGAGTAAACAAATTTTCCTAATCTTTCTGTTCAAGCGCCATCTAC”, the binding signal (RPM ratio (pull-down/input)) stood at 0.31.

For “GATGATTGTTCTCCCAGCTGATGAATTATATATTTCGAGTAAACAAATTTTCCTAATCTTTCTGTTCAAGCGCCATCTAC”, the binding signal (RPM ratio (pull-down/input)) was 0.925.

Consider “GATGATTGTTCTCCCAGCTGATGAATTGCTGAGCTCGAGTAAACAAATTTTCCTAATCTTTCTGTTCAAGCGCCATCTAC”, for which the binding signal (RPM ratio (pull-down/input)) was 0.392.

Consider “GATGATTGTTCTCCCAGCTGATGAATTGCGAGGTTCGAGTAAACAAATTTTCCTAATCTTTCTGTTCAAGCGCCATCTAC”, for which the binding signal (RPM ratio (pull-down/input)) was 0.749.

As for “GATGATTGTTCTCCCAGCTGATGAATTGAACCGGTCGAGTAAACAAATTTTCCTAATCTTTCTGTTCAAGCGCCATCTAC”, the binding signal (RPM ratio (pull-down/input)) is 0.244.

On to “GATGATTGTTCTCCCAGCTGATGAATTGGCTAACTCGAGTAAACAAATTTTCCTAATCTTTCTGTTCAAGCGCCATCTAC”, for which the binding signal (RPM ratio (pull-down/input)) was 0.307.

Consider “GATGATTGTTCTCCCAGCTGATGAATTCGTGTAGTCGAGTAAACAAATTTTCCTAATCTTTCTGTTCAAGCGCCATCTAC”, for which the binding signal (RPM ratio (pull-down/input)) was 1.48.

Take “GATGATTGTTCTCCCAGCTGATGAATTTGGACGCTCGAGTAAACAAATTTTCCTAATCTTTCTGTTCAAGCGCCATCTAC”: the binding signal (RPM ratio (pull-down/input)) stood at 0.49.

As for “GATGATTGTTCTCCCAGCTGATGAATTTTAAACATCGAGTAAACAAATTTTCCTAATCTTTCTGTTCAAGCGCCATCTAC”, the binding signal (RPM ratio (pull-down/input)) came out at 0.476.

As to “GATGATTGTTCTCCCAGCTGATGAATTGGAAGTGTCGAGTAAACAAATTTTCCTAATCTTTCTGTTCAAGCGCCATCTAC”, the binding signal (RPM ratio (pull-down/input)) came to 0.371.

Consider “GATGATTGTTCTCCCAGCTGATGAATTTCTACATTCGAGTAAACAAATTTTCCTAATCTTTCTGTTCAAGCGCCATCTAC”, for which the binding signal (RPM ratio (pull-down/input)) was found to be 0.295.

For “GATGATTGTTCTCCCAGCTGATGAATTAGACACATCGAGTAAACAAATTTTCCTAATCTTTCTGTTCAAGCGCCATCTAC”, the binding signal (RPM ratio (pull-down/input)) was 0.667.

As to “GATGATTGTTCTCCCAGCTGATGAATTCATTTAATCGAGTAAACAAATTTTCCTAATCTTTCTGTTCAAGCGCCATCTAC”, the binding signal (RPM ratio (pull-down/input)) turned out to be 0.363.

In the case of “GATGATTGTTCTCCCAGCTGATGAATTACAGAGATCGAGTAAACAAATTTTCCTAATCTTTCTGTTCAAGCGCCATCTAC”, the binding signal (RPM ratio (pull-down/input)) came to 0.326.

On to “GATGATTGTTCTCCCAGCTGATGAATTCTTATACTCGAGTAAACAAATTTTCCTAATCTTTCTGTTCAAGCGCCATCTAC”, for which the binding signal (RPM ratio (pull-down/input)) turned out to be 0.367.

With “GATGATTGTTCTCCCAGCTGATGAATTTGGGCCGTCGAGTAAACAAATTTTCCTAATCTTTCTGTTCAAGCGCCATCTAC”, the binding signal (RPM ratio (pull-down/input)) was 0.513.

In the case of “GATGATTGTTCTCCCAGCTGATGAATTTTACCGGTCGAGTAAACAAATTTTCCTAATCTTTCTGTTCAAGCGCCATCTAC”, the binding signal (RPM ratio (pull-down/input)) amounted to 0.201.

In the case of “GATGATTGTTCTCCCAGCTGATGAATTACAGCGCTCGAGTAAACAAATTTTCCTAATCTTTCTGTTCAAGCGCCATCTAC”, the binding signal (RPM ratio (pull-down/input)) stood at 0.408.

Take “GATGATTGTTCTCCCAGCTGATGAATTACGTTCATCGAGTAAACAAATTTTCCTAATCTTTCTGTTCAAGCGCCATCTAC”: the binding signal (RPM ratio (pull-down/input)) is 0.621.

For the sequence “GATGATTGTTCTCCCAGCTGATGAATTCAAAGATTCGAGTAAACAAATTTTCCTAATCTTTCTGTTCAAGCGCCATCTAC”, the binding signal (RPM ratio (pull-down/input)) came out at 0.215.

As to “GATGATTGTTCTCCCAGCTGATGAATTAGTTCAGTCGAGTAAACAAATTTTCCTAATCTTTCTGTTCAAGCGCCATCTAC”, the binding signal (RPM ratio (pull-down/input)) is 0.347.

“GATGATTGTTCTCCCAGCTGATGAATTTTAGGTTTCGAGTAAACAAATTTTCCTAATCTTTCTGTTCAAGCGCCATCTAC”: the binding signal (RPM ratio (pull-down/input)) was 0.446.

Take “GATGATTGTTCTCCCAGCTGATGAATTGTCACTATCGAGTAAACAAATTTTCCTAATCTTTCTGTTCAAGCGCCATCTAC”: the binding signal (RPM ratio (pull-down/input)) is 0.768.

As for “GATGATTGTTCTCCCAGCTGATGAATTTCCGTATTCGAGTAAACAAATTTTCCTAATCTTTCTGTTCAAGCGCCATCTAC”, the binding signal (RPM ratio (pull-down/input)) was 1.21.

With “GATGATTGTTCTCCCAGCTGATGAATTCCTATATTCGAGTAAACAAATTTTCCTAATCTTTCTGTTCAAGCGCCATCTAC”, the binding signal (RPM ratio (pull-down/input)) was 0.374.

With “GATGATTGTTCTCCCAGCTGATGAATTCCTCATATCGAGTAAACAAATTTTCCTAATCTTTCTGTTCAAGCGCCATCTAC”, the binding signal (RPM ratio (pull-down/input)) was 0.342.

As to “GATGATTGTTCTCCCAGCTGATGAATTCGCTTTATCGAGTAAACAAATTTTCCTAATCTTTCTGTTCAAGCGCCATCTAC”, the binding signal (RPM ratio (pull-down/input)) was determined as 1.16.

For the sequence “GATGATTGTTCTCCCAGCTGATGAATTGACAGTGTCGAGTAAACAAATTTTCCTAATCTTTCTGTTCAAGCGCCATCTAC”, the binding signal (RPM ratio (pull-down/input)) stood at 0.52.

Take “GATGATTGTTCTCCCAGCTGATGAATTGGAAATGTCGAGTAAACAAATTTTCCTAATCTTTCTGTTCAAGCGCCATCTAC”: the binding signal (RPM ratio (pull-down/input)) was determined as 0.289.

For “GATGATTGTTCTCCCAGCTGATGAATTCGTTTCCTCGAGTAAACAAATTTTCCTAATCTTTCTGTTCAAGCGCCATCTAC”, the binding signal (RPM ratio (pull-down/input)) is 1.76.

“GATGATTGTTCTCCCAGCTGATGAATTGACCATATCGAGTAAACAAATTTTCCTAATCTTTCTGTTCAAGCGCCATCTAC”: the binding signal (RPM ratio (pull-down/input)) was determined as 0.44.

With “GATGATTGTTCTCCCAGCTGATGAATTCTGACGATCGAGTAAACAAATTTTCCTAATCTTTCTGTTCAAGCGCCATCTAC”, the binding signal (RPM ratio (pull-down/input)) stood at 0.261.

On to “GATGATTGTTCTCCCAGCTGATGAATTTTTTTGTTCGAGTAAACAAATTTTCCTAATCTTTCTGTTCAAGCGCCATCTAC”, for which the binding signal (RPM ratio (pull-down/input)) came to 0.472.

With “GATGATTGTTCTCCCAGCTGATGAATTCGGTCAATCGAGTAAACAAATTTTCCTAATCTTTCTGTTCAAGCGCCATCTAC”, the binding signal (RPM ratio (pull-down/input)) was found to be 0.25.
